Source: PubChem BioAssay AID1347120 (National Center for Advancing Translational Sciences (NCATS), 2019)
About 930 (0.24%) of roughly 390,000 compounds were called active. The shares of active, inactive and inconclusive entries below differ from those in the screen. The call rests on the fitted dose curve; in most records, active means well fitted activation curve with a large enough effect; inconclusive means small, poorly fitted or top-dose-only effect; inactive means no such curve, though single readings can be large or run the other way. Potencies beside an inconclusive call are fits to weak or partial responses and may not hold up.

Assay: qHTS for Suppressors of FUS Proteinopathy: Primary screen using FUS-linked yeast assay; further: nearly all actives have a fitted effect of over 55% in size
Details: S. cerevisiae FUS-expressing, OD600, 24 h; Potency: growth rescue; series mostly up to 76.6 µM
Procedure, shortened: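 Cultures pregrown in 2.5% raffinose medium are shifted to minimal medium containing 2% galactose to express toxic FUS. Compounds are tested at several concentrations. After 24hr at 30C, growth is quantified at 600 nm absorbance.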
Potency means the concentration at half of the fitted maximal effect; tags describe the fitted curve by direction and shape.

| SMILES | Potency |
| --- | --- |
| COc1ccc(C(=O)c2ccc3oc(-c4ccc(OC)cc4)c(-c4ccc(O)cc4)c3c2)cc1 | inconclusive: 28.2 µM [activator, single point] |
| CCCCC(O)(c1ccccc1)C(CN1CCOCC1)c1ccccc1 (stereo not drawn) | inactive |
| CC1(C)N=C(SCC(=O)Nc2ccc(Cl)cc2)C(c2ccc(Cl)cc2)=N1 | inactive |
| COCCCN(Cc1ccco1)C(=O)Cn1ncc2c(=O)oc3ccc(C)cc3c21 | inconclusive: 4.47 µM [activator, partial curve, poor fit] |
| O=C(NCCc1ccc(Cl)cc1)c1ccc2c(c1)N(Cc1ccc(F)cc1)C(=O)CS2 | inconclusive: 31.6 µM [activator, single point] |
| OCOCCCn1c(C2CCCN2c2nc(-c3ccc(F)cc3)cs2)nc2cc(Cl)c(N3CCCCC3)cc21 (stereo not drawn) | inconclusive: 31.6 µM [activator, single point] |
| O=C(Nc1ccc2c(c1)OCO2)c1cc(C2CCCN(C(=O)C3CCCCC3)C2)on1 (stereo not drawn) | inactive |
| O=C(OC12CCCN(C1)/C(=C/c1ccccc1)C2)c1cccc(F)c1 (stereo not drawn) | inactive |
| COc1ccccc1NC(=O)c1ccc(-c2nn(C)c(=O)c3ccccc23)cc1 | inactive |
| COc1ccc2c3c([nH]c2c1)[C@]1(CCNC=O)Nc2ccccc2C1=NCC3 | inactive |
| COC(=O)[C@]12C[C@H](CC(=O)NCc3cccc(C(F)(F)F)c3)C(=O)N(Cc3cccc4ccccc34)C1=C[C@H](C(C)C)O[C@@H]2C1CC1 | inconclusive: 5.01 µM [activator, full curve] |
| Cc1cccc(C(c2sc3nc(-c4ccco4)nn3c2O)N2CCN(c3ccccc3F)CC2)c1 (stereo not drawn) | inactive |
| CCCCn1c(N)c(-c2nc3ccccc3s2)c2c([N+](=O)[O-])nn(C)c(=O)c21 | active: 39.8 µM |
| O=c1cc(-c2c(O)c3ccccc3n(Cc3ccccc3)c2=O)[nH][nH]1 | inconclusive: 15.8 µM [activator, partial curve, poor fit] |
| CCc1c(-c2ccccc2)ncn1Cc1cccc(-c2ccccc2)c1 | inactive |
| COc1cc(C(C)=O)ccc1OCC(=O)c1cc(C)n(C2CC2)c1C | inactive |
| CCc1c(C)sc(NC(=O)CC#N)c1C#N | active: 10 µM |
| COc1ccc(-c2nc(NC(=O)CSc3nnc(C)s3)ns2)cc1 | inactive |
| COc1ccccc1-c1cc(NC(C)=O)c2ncc(-c3cccc(C(C)=O)c3)n2c1 | inconclusive: 35.5 µM [activator, single point] |
| CCCCCC(=O)N1C[C@@H](n2cc(C3CC3)nn2)[C@H](O)C[C@@H]1c1ccc(C)cc1 | inactive |
| Cc1ccc(NC(=O)CN2C(=O)CSc3ccc(S(=O)(=O)N4CCCCC4)cc32)cc1 | inconclusive: 31.6 µM [activator, partial curve, poor fit] |
| CS(=O)(=O)c1cccc(-c2nnc(NC(=O)c3ccc4c(c3)OCCO4)o2)c1 | inactive |

| SMILES | Potency |
| --- | --- |
| CCc1ccc(NC(=O)CC2C(=O)N(c3ccc(C)cc3)C(=O)N2C2CCCC2)cc1 (stereo not drawn) | inconclusive: 31.6 µM [activator, single point] |
| Cc1ccc(NC(=O)CN2C(=O)S/C(=C/c3ccc(-c4cc(C(=O)O)ccc4C)o3)C2=O)cc1C | inconclusive: 35.5 µM [activator, partial curve, poor fit] |
| CSCCC(=O)Nc1nc(-c2ccccn2)cs1 | inactive |
| CN(C)c1oc(-c2ccc(COc3ccccc3)o2)nc1C#N | inconclusive: 50.1 µM [activator, single point] |
| CCC(C)Nc1nc(-c2c[nH]c3ccccc23)cs1 (stereo not drawn) | inactive |
| Cc1ccc(-c2ccc(CCC(=O)O)n2-c2ccc(C(C)C)cc2)cc1 | inconclusive: 39.8 µM [activator, partial curve, poor fit] |
| CCNC(=O)n1nccc1C(C)Oc1ccc(Cl)cc1 (stereo not drawn) | inactive |
| CCOc1ccccc1NC(=O)N1CCN(S(=O)(=O)c2ccc3c(ccn3C)c2)CC1 | inconclusive: 50.1 µM [activator, single point] |
| COc1cccc(NC(=O)Cc2csc(NC(=O)Nc3ccccc3OC)n2)c1 | inconclusive: 15.8 µM [activator, partial curve, poor fit] |
| CCCNC(=O)N1[C@@H](CO)[C@H](c2ccc(C3=CCCC3)cc2)[C@@H]1CN(CC)S(=O)(=O)c1ccccc1[N+](=O)[O-] | inconclusive: 25.1 µM [activator, single point] |
| O=C(NCc1ccccc1)C(=O)NCC(c1ccco1)N1CCN(c2ccccc2F)CC1 (stereo not drawn) | inactive |
| CN(CC(O)CON=C1c2ccccc2-c2ccccc21)S(=O)(=O)c1ccc(Br)cc1 (stereo not drawn) | inconclusive: 7.08 µM [activator, full curve] |
| CC1Cc2ccccc2N1C(=O)CN1CCN(Cc2ccccc2)CC1 (stereo not drawn) | inactive |
| CCC(=O)N1CCc2cc(S(=O)(=O)N(C)c3cccc(C)c3)ccc21 | inactive |
| O=C(/C=C/c1ccccc1)N1CCN(Cc2cc(=O)n3nc(-c4ccccc4)sc3n2)CC1 | inactive |
| CCCCNC(=O)C[C@H]1C[C@@]2(C(=O)OC)C(=C[C@H](C3CCCC3)O[C@@H]2C)N(Cc2ccc(Cl)cc2Cl)C1=O | inconclusive: 31.6 µM [activator, partial curve, poor fit] |
| COc1ccc(-c2cnc3c(NC=O)cc(-c4ccoc4)cn23)cc1OC | inconclusive: 28.2 µM [activator, partial curve, poor fit] |
| Cc1nc(-c2coc3cc(OCC(=O)O)ccc3c2=O)cs1 | inactive |
| Cc1ccc(S(=O)(=O)N2CCC(=O)N(CCOCc3ccc(C(F)(F)F)cc3)CC2)cc1 | inconclusive: 25.1 µM [activator, partial curve, poor fit] |
| Cc1cccc(N2CCN(C(=O)C3CCN(S(=O)(=O)c4ccc5c(c4)oc(=O)n5C)CC3)CC2)c1C | inconclusive: 50.1 µM [activator, single point] |
| COc1ccc(N(CC(=O)Nc2ccc(F)cc2)S(=O)(=O)c2ccccc2[N+](=O)[O-])c(OC)c1 | inconclusive: 25.1 µM [activator, partial curve] |
